From PubChem BioAssay (NCATS)
Where “and” joins values, the source holds several entries; their conditions need not be identical. Equal values may be shown once. Some of the results follow. These are further read-outs of the screen, such as a control signal, another cell line or another target. No call is given for them. Most of these compounds were active or inconclusive in the main read-out, so they are no random draw. Words in brackets tell the shape of the fitted curve; partial curves, single points and poor fits give uncertain potencies.

test: qHTS Assay for Lipid Storage Modulators (AID 1519); conditions: Drosophila S3 cells, BODIPY lipid droplet/cell ratio, laser cytometry; measured here: cell count channel max response; cells loaded with oleic acid
Procedure, shortened: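 Cells seeded at 5,000 per well were treated with compounds over a concentration series and loaded with oleic acid (400 uM, as added). Lipid droplet fluorescence (488 nm excitation, 500-530 nm channel) was read by laser-scanning cytometry and normalized to 20 uM Triacsin C.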
Tags describe the fitted curve by direction and shape.

SMILES | max response
Cn1c(=O)c(-c2ccc(F)c(F)c2)nc2cncnc21 | 37.7%
COc1ccc(Oc2ncc3nc(-c4cccc(C#N)c4)c(=O)n(Cc4cccc(OC)c4)c3n2)cc1 | 17.7%
O=[N+]([O-])c1cccc2c(Br)[nH]nc12 | 67.1% and 23.7% and -4.02%
CN(C)C(=O)c1ccc(-c2cc(N(C)Cc3ccco3)ncn2)cc1 | 42.6%
COCCNc1nc(-c2ccc(C(=O)N(C)C)cc2)nc2ccccc12 | 31.7%
CCNc1ncc2nc(CCc3ccccc3)c(=O)n(C[C@H]3CCCO3)c2n1 | 32.9%
C[C@@H](C1=C(CCN(C)C)Cc2ccccc21)c1ccccn1 | 60.7%
Clc1cccc(C=NC=Nc2cccc(Cl)c2)c1 | 73.6%
CNc1nc(-c2ccoc2)nc2ccccc12 | 34.8%
CC1(C)C(OC(=O)CCC(=O)O)CC[C@]2(C)C1CC[C@@]1(C)C2C(=O)C=C2[C@@H]3C[C@@](C)(C(=O)O)CC[C@]3(C)CCC21C (stereo not given in full) | 27.2%
COc1ccc(C(=O)N2CCC3(CCN(C(=O)Nc4ccccc4)CC3)CC2)cc1 | 27.1%
COC(=O)N1CCC2(CCCN(Cc3cc(C(F)(F)F)cc(C(F)(F)F)c3)C2)CC1 | 41.9%
c1csc(CNc2ccnc(-c3ccc4c(c3)OCO4)n2)c1 | 18.2%
CS(=O)(=O)Nc1cccc(-c2cc(NCc3cccs3)ncn2)c1 | 40.2%
COc1cc2c(C)c3c4c(cc(OC)c(OC)c4c2cc1OC)CCN3C | 64.7%
Cc1ccccc1-c1nc(N(C)C)c2ccccc2n1 | 25.4%
O=c1cnc2cnc(Oc3ccccc3)nc2n1Cc1ccc(F)cc1 | 32.5%
COc1ccc(Oc2ncc3nc(-c4cn(C)c5ccccc45)c(=O)n(C)c3n2)cc1 | 40%
COc1ccc2[nH]cc(CCNc3ncncc3-c3ccccc3OC)c2c1 | 13.8%
COc1ccccc1CNc1nc(-c2cccc(C#N)c2)nc2ccccc12 | 24.3%

SMILES | max response
Cc1ccccc1-c1nccc(NCc2cccnc2)n1 | 21.1%
Nc1nc2c(c(=O)[nH]1)N=C(CNc1ccc(C(=O)NC(CCC(=O)O)C(=O)O)cc1)CN2 (stereo not given) | 40.2%
Nc1ccc(S(=O)(=O)Nc2cnc3ccccc3n2)cc1 | 30.6%
O=c1c(-c2cccs2)nc2cnc(N3CCNCC3)nc2n1CCc1ccccc1 | -0.203%
COc1cccc(Cn2c(=O)cnc3cnc(N(C)C)nc32)c1 | 14.4%
O=C(c1ccncc1)N1CCC2(CCCN(Cc3ccccc3)C2)CC1 | 30%
COc1ccc2[nH]cc(CCNc3cc(-c4ccc(C(=O)N(C)C)cc4)ncn3)c2c1 | 23.8%
Cc1cnc(CNc2ncnc3ccc(-c4ccc(N(C)C)cc4)cc23)cn1 | 25.4%
Cn1c(=O)c(-c2ccc(F)cc2)nc2cncnc21 | 31.4%
O=C(/C=C/c1ccc(OCc2ccccc2)cc1)c1cccs1 | 55.6%
O=C(c1ccc2c(c1)OCO2)N1CCCCC1 | 85.4%
COc1ccccc1CC(Cc1nc2ccccc2[nH]1)c1nc2ccccc2[nH]1 (stereo not given) | 99.9%
Cc1c(C(=O)NN2CCOCC2)nn(-c2ccc(Cl)cc2Cl)c1-c1ccc(I)cc1 | 56.5%
COc1ccc(Oc2ncc3nc(-c4ccccc4)c(=O)n(C4CC4)c3n2)cc1 | 14.5%
O=c1c(-c2ccc(Cl)cc2)nc2cnc(N3CCOCC3)nc2n1CCc1ccccc1 | 37.1%
COc1ncc2nc(-c3ccc(F)cc3)c(=O)n(CCC#N)c2n1 | 14.9%
Cc1ccccc1-c1cc(N(C)Cc2ccco2)ncn1 | 36.7%
COc1ccc(CNc2ccnc(-c3c(C)noc3C)n2)c(OC)c1 | 4.98%
COc1cccc(Cn2c(=O)c(-c3cccc(Cl)c3)nc3cncnc32)c1 | 19.7%
CCCN(C/C=C\I)[C@@H]1CCc2cccc(O)c2C1 | 69.6%

same assay, conditions: Drosophila S3 cells, BODIPY lipid droplet/cell ratio, laser cytometry; measured here: cell number channel AC50; cells loaded with oleic acid

SMILES | AC50
Cn1c(=O)c(-c2ccc(F)c(F)c2)nc2cncnc21 | 2.51 µM [rising, full curve]
COc1ccc(Oc2ncc3nc(-c4cccc(C#N)c4)c(=O)n(Cc4cccc(OC)c4)c3n2)cc1 | 0.631 µM [rising, full curve, poor fit]
O=[N+]([O-])c1cccc2c(Br)[nH]nc12 | 14.1 µM [rising, partial curve, poor fit] and 1.26 µM [falling, full curve]
CN(C)C(=O)c1ccc(-c2cc(N(C)Cc3ccco3)ncn2)cc1 | 39.8 µM [rising, partial curve]
COCCNc1nc(-c2ccc(C(=O)N(C)C)cc2)nc2ccccc12 | 1.12 µM [rising, full curve]
CCNc1ncc2nc(CCc3ccccc3)c(=O)n(C[C@H]3CCCO3)c2n1 | 1.12 µM [rising, full curve]
C[C@@H](C1=C(CCN(C)C)Cc2ccccc21)c1ccccn1 | 35.5 µM [rising, single point]
Clc1cccc(C=NC=Nc2cccc(Cl)c2)c1 | 2.51 µM [rising, full curve]
CNc1nc(-c2ccoc2)nc2ccccc12 | 2.51 µM [rising, full curve, poor fit]
CC1(C)C(OC(=O)CCC(=O)O)CC[C@]2(C)C1CC[C@@]1(C)C2C(=O)C=C2[C@@H]3C[C@@](C)(C(=O)O)CC[C@]3(C)CCC21C (stereo not given in full) | 3.55 µM [rising, full curve, poor fit]
COc1ccc(C(=O)N2CCC3(CCN(C(=O)Nc4ccccc4)CC3)CC2)cc1 | 1 µM [rising, full curve, poor fit]
COC(=O)N1CCC2(CCCN(Cc3cc(C(F)(F)F)cc(C(F)(F)F)c3)C2)CC1 | 14.1 µM [rising, partial curve]
c1csc(CNc2ccnc(-c3ccc4c(c3)OCO4)n2)c1 | 0.355 µM [rising, full curve]
CS(=O)(=O)Nc1cccc(-c2cc(NCc3cccs3)ncn2)c1 | 5.01 µM [rising, partial curve]
COc1cc2c(C)c3c4c(cc(OC)c(OC)c4c2cc1OC)CCN3C | 7.08 µM [rising, full curve]
Cc1ccccc1-c1nc(N(C)C)c2ccccc2n1 | 1.12 µM [rising, full curve, poor fit]
O=c1cnc2cnc(Oc3ccccc3)nc2n1Cc1ccc(F)cc1 | 20 µM [rising, partial curve]
COc1ccc(Oc2ncc3nc(-c4cn(C)c5ccccc45)c(=O)n(C)c3n2)cc1 | 7.94 µM [rising, partial curve, poor fit]
COc1ccc2[nH]cc(CCNc3ncncc3-c3ccccc3OC)c2c1 | 2.82 µM [rising, partial curve]
COc1ccccc1CNc1nc(-c2cccc(C#N)c2)nc2ccccc12 | 0.1 µM [rising, full curve, poor fit]

SMILES | AC50
Cc1ccccc1-c1nccc(NCc2cccnc2)n1 | 0.501 µM [rising, full curve, poor fit]
Nc1nc2c(c(=O)[nH]1)N=C(CNc1ccc(C(=O)NC(CCC(=O)O)C(=O)O)cc1)CN2 (stereo not given) | 12.6 µM [rising, partial curve, poor fit]
Nc1ccc(S(=O)(=O)Nc2cnc3ccccc3n2)cc1 | 25.1 µM [rising, single point]
O=c1c(-c2cccs2)nc2cnc(N3CCNCC3)nc2n1CCc1ccccc1 | 0.708 µM [rising, single point]
COc1cccc(Cn2c(=O)cnc3cnc(N(C)C)nc32)c1 | 8.91 µM [rising, partial curve, poor fit]
O=C(c1ccncc1)N1CCC2(CCCN(Cc3ccccc3)C2)CC1 | 0.708 µM [rising, full curve]
COc1ccc2[nH]cc(CCNc3cc(-c4ccc(C(=O)N(C)C)cc4)ncn3)c2c1 | 0.631 µM [rising, partial curve]
Cc1cnc(CNc2ncnc3ccc(-c4ccc(N(C)C)cc4)cc23)cn1 | 0.794 µM [rising, full curve]
Cn1c(=O)c(-c2ccc(F)cc2)nc2cncnc21 | 0.0398 µM [rising, full curve, poor fit]
O=C(/C=C/c1ccc(OCc2ccccc2)cc1)c1cccs1 | 12.6 µM [rising, partial curve, poor fit]
O=C(c1ccc2c(c1)OCO2)N1CCCCC1 | 14.1 µM [rising, partial curve, poor fit]
COc1ccccc1CC(Cc1nc2ccccc2[nH]1)c1nc2ccccc2[nH]1 (stereo not given) | 3.55 µM [rising, full curve]
Cc1c(C(=O)NN2CCOCC2)nn(-c2ccc(Cl)cc2Cl)c1-c1ccc(I)cc1 | 5.62 µM [rising, full curve]
COc1ccc(Oc2ncc3nc(-c4ccccc4)c(=O)n(C4CC4)c3n2)cc1 | 0.0158 µM [rising, full curve, poor fit]
O=c1c(-c2ccc(Cl)cc2)nc2cnc(N3CCOCC3)nc2n1CCc1ccccc1 | 3.98 µM [rising, full curve, poor fit]
COc1ncc2nc(-c3ccc(F)cc3)c(=O)n(CCC#N)c2n1 | 1 µM [rising, partial curve]
Cc1ccccc1-c1cc(N(C)Cc2ccco2)ncn1 | 11.2 µM [rising, partial curve, poor fit]
COc1ccc(CNc2ccnc(-c3c(C)noc3C)n2)c(OC)c1 | 1 µM [rising, partial curve]
COc1cccc(Cn2c(=O)c(-c3cccc(Cl)c3)nc3cncnc32)c1 | 0.562 µM [rising, full curve, poor fit]
CCCN(C/C=C\I)[C@@H]1CCc2cccc(O)c2C1 | 35.5 µM [rising, partial curve, poor fit]
